Source: paper PMC12136788
Some of the results follow.

B1: chr17:57839567:57839672:-|3pUTR|ENSG00000181610|unk|FALSE|unique (ssRNA)
RNA: GGGAGUUCUACAGUCCGACGAUCGGGUUGUCACAAAGCUCAGUAUCAUGGUUUGACAGAAGCAGUUAUGUGAACUUUUAUGUUAGGACAUUACUAAAUAAAGAAUUCCCUAGCUGCUUAUAAAGUAAAUUUACUUUGAAUUGUCAACAGAGGAUUGAGCAUCA
B2: chr6:35869508:35869609:-|CDS|ENSG00000096063|unk|total|mutant (ssRNA)
RNA: GGGAGUUCUACAGUCCGACGAUCGACACCAUGGUGUGCCAGUCUUCCUCAACUGCCGGUCAGUCAUUCAGUGAACAACACAUCCGCCAACUUCAAGAAAGCAUUCGGGCAGAGAUACCCUGUGAAGAUGAACAAGAGCAAGAACAACAGAGGAUUGAGCAUCA
B3: chr19:4839056:4839157:-|3pUTR|ENSG00000105355|msi1|total|mutant (ssRNA)
RNA: GGGAGUUCUACAGUCCGACGAUCUCUAUAAUGCAGCUGUGCUCUGGAGUCCUCAACCCGGGGCUCAUUUCAAACUUAUUUUCCCGCCACUCCUCCCAGCUCUUCUGUGCUGUCCACUUGGGAAGCUAAGGCUCUCAAAACGGGCAACAGAGGAUUGAGCAUCA
B4: chr11:85958428:85958534:-|3pUTR|ENSG00000073921|unk|FALSE|unique (ssRNA)
RNA: GGGAGUUCUACAGUCCGACGAUCAGAAACAAUAACUGAAAUUAACUUUUCUUUUUUUAAAAAAAAUUAUAUUCAGUUUGCAGUAGACAUUCCUUAAGUAUUUGUAUUUAUUUAUGAUUAUCAAUUUUACAUAACAUUAAUAUUCAACAGAGGAUUGAGCAUCA
B5: ENSG00000181852:stop:overlap|stop_codon|ENSG00000181852|stop_codon|NA|stop_codon (ssRNA)
RNA: GGGAGUUCUACAGUCCGACGAUCGUGUCAACCCCAACCUUCAGAACCUGGAGGAGACAAUUGAAUACAACGAGAUCCUAGAGUAGCUUACAACCCAGAGAAGAGGAGGCAGAGUGCAAGUCCAGGAAAGUGAUCUCUAAAAUGCAACAGAGGAUUGAGCAUCA
B6: chr17:44253117:44253371:-|CDS|ENSG00000004939|control|control|control (ssRNA)
RNA: GGGAGUUCUACAGUCCGACGAUCCAAACCUGAGCGCAAGAUGGUCAAGGGCUCCGGCUUCCACCUGGACCUGCUGCUGGUAGUAGGCAUGGGUGGGGUGGCCGCCCUCUUUGGGAUGCCCUGGCUCAGUGCCACCACCGUGCGCAACAGAGGAUUGAGCAUCA
B7: chr4:48498090:48498191:-|3pUTR|ENSG00000075539|msi1|total|mutant (ssRNA)
RNA: GGGAGUUCUACAGUCCGACGAUCAGGAAGCCUGAAGACUGACUACCAAAACAUGCAAUAUACUUAUUCACUGUCUAAGUCUGCCGUAUAACAUGAACUGGAGUCUCUAUCCUUUUCUAAAAUCGCAUUUUGUAAGAAAAGAAACAACAGAGGAUUGAGCAUCA
B8: chr12:46358264:46358384:-|3pUTR|ENSG00000134294|msi1|FALSE|unique (ssRNA)
RNA: GGGAGUUCUACAGUCCGACGAUCAAUGUGAUCUAGUGUAAUGGAAGACCUUUGAGAACCUGGGUGUAUUAACUUUGUGUAUAUAGUGUAAAUAUCCCCACUGUACUGUUAGAGGCCAACAAUUCUAGUAUGGCUUGUUGGCAACAACAGAGGAUUGAGCAUCA
B9: ENSG00000124766:be:win_3051|3pUTR|ENSG00000124766|bound_else_gene|NA|bound_elsewhere_windowed (ssRNA)
RNA: GGGAGUUCUACAGUCCGACGAUCAGGGCUAGAGUUUUAACUUUUAAUUUUUUAUAUUUAAAUGUAGACUUUUGACACUUUUAAAAAACAAAAAAAGACAAGAGAGAUGAAAACGUUUGAUUAUUUUCUCAGUGUAUUUUUGUACAACAGAGGAUUGAGCAUCA
B10: chr15:93024873:93024975:+|3pUTR|ENSG00000173575|unk|FALSE|unique (ssRNA)
RNA: GGGAGUUCUACAGUCCGACGAUCGGUCCAGCUCUGAUUCGGGUCACCACUCCUGCACUUUGGCACCCCAUCCCAUUCCAGCCUAGUUCUGGCCUCCCACUUUGACGGGCACUUGGAGGAGGAGCUGACUGUGUGUGUACCAGCCAACAGAGGAUUGAGCAUCA
B11: chr17:44319658:44319728:-|3pUTR|ENSG00000013306|msi1_unk|total|mutant (ssRNA)
RNA: GGGAGUUCUACAGUCCGACGAUCUCCCUGUGUUUGCUGCCGCUGGGCAUGUCUCCAGGAACCAAGAAGCCCUCAGCCUGGUGCCGUCUCCCUGACCCUUGUUAAUUCCUUAAGUCUAAAGAUGAUGAACUUCUGCCUGGUGCCCAACAGAGGAUUGAGCAUCA
B12: ENSG00000124766:be:win_1151|CDS|ENSG00000124766|bound_else_gene|NA|bound_elsewhere_windowed (ssRNA)
RNA: GGGAGUUCUACAGUCCGACGAUCCCCACUCCUCCUCUUCCUCCUCCUCGGGCUCCUCGUCCUCCGACGACGAGUUCGAAGACGACCUGCUCGACCUGAACCCCAGCUCAAACUUUGAGAGCAUGUCCCUGGGCAGCUUCAGUUCAACAGAGGAUUGAGCAUCA
B13: chr7:32869000:32869101:-|3pUTR|ENSG00000170852|msi1|total|mutant (ssRNA)
RNA: GGGAGUUCUACAGUCCGACGAUCAAUUGAGAAACUUUAUGUGUAAUCAUGAGAGUAUAAGAAUCUGGAUUAUCUAACAUUGUCCGCCCUGUGUAUGUACAGUUCAAAAAGUUCAUUUAUAAAAGCCGUUUCCUGUUCCCCGUGCAACAGAGGAUUGAGCAUCA
B14: chr13:19825080:19825183:-|CDS|ENSG00000132950|unk|FALSE|unique (ssRNA)
RNA: GGGAGUUCUACAGUCCGACGAUCUUUUAGAGAAGAAAAUGAGAAACAAUUAUAUGGAUCGUCAAAUACACUUUUGAAAAAAAUAGAGGGAAUCCCAGAAAAAAAGGAAAAGACUUCACAGCUACAGCUUUCAGUAGAAUGUGGCAACAGAGGAUUGAGCAUCA

Each binder was assayed against MSI1 full-length (mouse, UniProt Q61474 1-362) (assay: nsRBNS (natural sequence RNA bind-n-seq); RBNS binding buffer (assumed for nsRBNS): 25 mM Tris pH 7.5, 150 mM KCl, 3 mM MgCl2, 0.01% Triton X-100, 500 ug/ml BSA, 20 U/ml SUPERase-In, 4 C; UNK is unkempt and MSI1 is Musashi-1; names of the RNAs are library labels; protein concentration not given here; high values mean tight binding).
UniProt Q61474, sequence (Q61474 whole entry): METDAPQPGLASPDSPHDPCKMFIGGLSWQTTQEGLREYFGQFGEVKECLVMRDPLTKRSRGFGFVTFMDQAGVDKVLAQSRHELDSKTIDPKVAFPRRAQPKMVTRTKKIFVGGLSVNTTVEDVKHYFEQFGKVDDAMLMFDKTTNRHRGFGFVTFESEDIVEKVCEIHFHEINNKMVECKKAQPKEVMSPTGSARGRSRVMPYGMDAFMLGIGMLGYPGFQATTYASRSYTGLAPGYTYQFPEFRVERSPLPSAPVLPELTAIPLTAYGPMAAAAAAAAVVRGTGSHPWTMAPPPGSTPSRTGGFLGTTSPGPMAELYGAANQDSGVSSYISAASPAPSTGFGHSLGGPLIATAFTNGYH

| Binder | binding signal [enrichment R] |
| --- | --- |
| B1 | 0.599 |
| B2 | 0.355 |
| B3 | 0.586 |
| B4 | 4.67 |
| B5 | 0.586 |
| B6 | 0.251 |
| B7 | 0.265 |
| B8 | 3.77 |
| B9 | 7.13 |
| B10 | 1.96 |
| B11 | 1.01 |
| B12 | 0.624 |
| B13 | 0.877 |
| B14 | 4.78 |
